Source: patent US20220340685A1, “COMBINATION THERAPY WITH ENTPD2 AND CD73 ANTIBODIES” (Novartis AG, priority 2019, published 2022)

T1: mouse ENTPD2 (Mus musculus, UniProt O55026)
T1 construct: residues 29-462 of mouse or rat ENTPD2 (the extracellular domain); His6; mouse IgK signal peptide (N); made in house; host or cells: FreeStyle 293-F cells (transient)
T1 sequence (O55026 29-462): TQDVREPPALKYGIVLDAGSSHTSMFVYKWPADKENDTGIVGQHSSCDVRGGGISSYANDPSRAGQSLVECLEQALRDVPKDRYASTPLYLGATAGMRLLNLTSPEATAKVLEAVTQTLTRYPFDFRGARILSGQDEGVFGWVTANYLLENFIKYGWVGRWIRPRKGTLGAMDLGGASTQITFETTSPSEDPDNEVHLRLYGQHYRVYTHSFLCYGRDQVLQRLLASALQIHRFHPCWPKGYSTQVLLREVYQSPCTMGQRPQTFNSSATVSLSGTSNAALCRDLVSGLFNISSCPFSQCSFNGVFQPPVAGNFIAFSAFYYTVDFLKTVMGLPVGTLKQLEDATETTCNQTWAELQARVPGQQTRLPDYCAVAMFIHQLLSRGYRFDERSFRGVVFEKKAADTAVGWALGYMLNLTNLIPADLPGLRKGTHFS

T2: recombinant human ENTPD2 (residues 29-462) (Homo sapiens, UniProt Q9Y5L3)
T2 construct: residues 29-462 of human or cyno ENTPD2; GP67 signal peptide (N); made in house; host or cells: High Five (Trichoplusia ni) insect cells, baculovirus
T2 sequence (Q9Y5L3 29-462): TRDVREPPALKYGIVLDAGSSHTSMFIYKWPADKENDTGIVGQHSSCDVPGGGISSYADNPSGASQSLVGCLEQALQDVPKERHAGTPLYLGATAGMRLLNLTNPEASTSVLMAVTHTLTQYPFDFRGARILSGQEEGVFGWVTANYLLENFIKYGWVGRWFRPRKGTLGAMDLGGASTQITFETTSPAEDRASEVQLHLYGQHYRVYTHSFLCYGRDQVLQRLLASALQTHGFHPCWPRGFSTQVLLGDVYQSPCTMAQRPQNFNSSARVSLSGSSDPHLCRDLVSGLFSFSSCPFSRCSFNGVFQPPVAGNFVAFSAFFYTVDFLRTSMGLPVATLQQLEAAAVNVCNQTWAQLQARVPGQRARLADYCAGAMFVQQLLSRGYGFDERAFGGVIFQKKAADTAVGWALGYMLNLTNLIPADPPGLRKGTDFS

B1: mAb1: humanized anti-human ENTPD2 human IgG1 antibody derived from mAb17; heavy chain SEQ ID NO: 12, light chain SEQ ID NO: 23 (antibody)
heavy: EVQLVQSGAEVKKPGESLKISCKASGYTFTDYNMDWVRQMPGKGLEWMGDINPKYDISTYNQQFKGQVTISADKSIRTAYLQWSSLKASDTAMYYCARRGFFLYYGINYYYFDVWGQGTLVTVSSASTKGPSVFPLAPSSKSTSGGTAALGCLVKDYFPEPVTVSWNSGALTSGVHTFPAVLQSSGLYSLSSVVTVPSSSLGTQTYICNVNHKPSNTKVDKRV[left out - human IgG1 Fc]
light: DIQLTQSPSSLSASVGDRVTITCSASSSVSYIHWFQQKPGKAPKLLIYSTSNLASGVPSRFSGSGSGTFFTLTISSLQPEDFATYFCHQWSSYPWTFGQGTKVEIKRTVAAPSVFIFPPSDEQLKSGTASVVCLLNNFYPREAKVQWKVDNALQSGNSQESVTEQDSKDSTYSLSSTLTLSKADYEKHKVYACEVTHQGLSSPVTKSFNRGEC
B2: mAb6: humanized anti-human ENTPD2 antibody derived from mAb16; probably heavy chain SEQ ID NO: 72, light chain SEQ ID NO: 76 (antibody)
heavy: QVQLQESGPGLVKPSQTLSLTCTVSGYSITSGYYWNWIRQHPGKGLEWMGYISYDADNNYNPSLKNRITISRDTSKNQFSLKLSSVTAADTAVYYCAGGYYRYGLGSYSGSYYYVMDYWGQGTTVTVSSASTKGPSVFPLAPSSKSTSGGTAALGCLVKDYFPEPVTVSWNSGALTSGVHTFPAVLQSSGLYSLSSVVTVPSSSLGTQTYICNVNHKPSNTKVDKRV[left out - human IgG1 Fc]
light: DTQMTQSPSSLSVSVGDRATITCKASQSVDYEGHSYMNWYQQKPGKAPKLLIYAASNLESGVPSRFSGSGSGTDFTLTISSVQPEDFATYYCQQSNEDPPTFGGGTKLEIKRTVAAPSVFIFPPSDEQLKSGTASVVCLLNNFYPREAKVQWKVDNALQSGNSQESVTEQDSKDSTYSLSSTLTLSKADYEKHKVYACEVTHQGLSSPVTKSFNRGEC

What was measured:
mouse ENTPD2 = molecular target: T1, mouse ENTPD2; test: Antibody specificity: binding to mouse ENTPD2; conditions: for Mouse ENTPD2 BIACore KD (nM): Biacore SPR
Procedure: ELISA screening on directly coated antigen: Maxisorp™ 384-well plates (Thermo Nunc) were coated with 2 μg/ml of recombinant ENTPD2 diluted in PBS. After blocking with 2% BSA (bovine serum albumin) in PBS for 1 hr at room temperature, washing plates 3× with TBST (0.05% Tween 20 in TBS, Sigma Cat# T9039), primary antibodies in TBST and 2% BSA were added in a serial dilution and incubated for 1 hr at room temperature. Plates were washed again and bound antibodies were detected by incubation with anti-hFc gamma conjugated to horseradish peroxidase (HRP; Jackson ImmunoResearch, Cat#115-035-098, diluted 1:5000 in 1× TBST+2% BSA) for 1 hr at room temperature followed by washing with TBST and afterwards addition of SureBlue Peroxidase substrate (KPL, #52-00-03) substrate. After 15 min, absorbance at 650 nm was recorded and analyzed in GraphPad Prism6.
Biacore Screening: Affinity was measured by determining the kinetic rate constants using surface plasmon resonance (SPR) on a Biacore T200 or T100 with the T200 sensitivity upgrade instrument (Biacore, GE Healthcare). Antibodies were captured on CM5 sensor chips (Biacore, GE Healthcare) prepared with a mouse anti-human IgG Fc antibody (ThermoFisher catalogue # 05-4200) amine coupled to the surface. […] ENTPD2 analytes were allowed to associate for 180 s and dissociate for up to 1800 s depending on the off-rate of the antibody at a flow rate of 30 μL/min. The running buffer was PBS pH 7.2 (prepared from a Corning 10X stock, cat# 46-013-CM) +0.05% Tween 20. Regeneration was accomplished with 30 s injections of 3 or 4 M MgCl2 to remove all the captured antibody and remaining complex from the surface, after which fresh antibody was captured. The raw data were analyzed using Biacore T200 Evaluation Software version 1.0 and fit to a 1:1 binding model, with all parameters set to fit globally except for RI, which was set to fit locally.
Antibody specificity for mAb1-mAb10 was confirmed. […] Antibodies mAb8, mAb9, and mAb10 show weak affinity to mouse ENTPD2. None of the selected antibodies bind to rat ENTPD2.

H520 cells = test: Cross reactivity: FACS binding to H520 cells (ENTPD3 and ENTPD8 expression); design: species or system human; conditions: 50 nM antibody
Procedure: FACS screening: Specific binding of candidate antibodies to endogenously expressed ENTPD2 was assessed by flow cytometry. Cells were rinsed thoroughly with 1× PBS and treated with Accutase (Millipore #SCR005) to lift from growth plates and resuspended at approximately 1×10^5 cells/90 μL in 1× FACS buffer (2% FBS +0.1% NaN3 in PBS). In a 96-well U-bottom plate, 10 μL of 10× antibody solution in FACS buffer was pre-seeded and 90 μL of cell suspension was added. Cell were incubated for 30 minutes at 4° C., washed 1× with cold PBS and resuspended in 100 μL of 1:500 secondary antibody 1× FACS buffer (Allophycocyanin conjugated F(ab′)2 goat anti-human IgG, Fcγ specific; Jackson Immunoresearch, Cat# 109-136-098). After additional incubation for 15 min at 4° C., cells were washed twice with PBS and resuspended in 100 μL of 1× FACS buffer with 4 μg/mL propidium iodide (Life Technologies, Cat# P3566). Geometric mean fluorescence intensity was calculated on live single cells using FlowJo software.
H520 cells were identified as a cancer cell line with ENTPD3 (Ct 25) and ENTPD8 (Ct 26) expression by Taqman and were used for selectivity screening.

[1] = molecular target: T2, recombinant human ENTPD2 (residues 29-462); test: Biochemical human ENTPD2 functional assay (Transcreener ADP2 TR-FRET)
[2] = Anti-drug antibody (ADA) formation in cynomolgus monkey PK study; format: in vivo; conditions: male cynomolgus monkeys, 3, 10, 30 and 100 mg/kg i.v.
Excerpt: Anti-drug antibody (ADA) formation was also examined in this study.

[3] = Cynomolgus monkey single and multiple dose pharmacokinetics
[4] = i.v., 10 to 100 mg/kg (10-fold increase in dose)
[5] = single i.v. dose, 3 to 10 mg/kg (3.3-fold increase in dose)

| Molecule | binding / cross-reactivity to mouse ENTPD2 (mouse ENTPD2) | Mouse ENTPD2 BIACore KD (nM) (mouse ENTPD2) | Apparent FACS binding at 50 nM, H520 Cells (H520 cells) | inhibition of the catalytic activity of recombinant human ENTPD2 [1] | anti-drug antibody (ADA) detection [2] | increase in AUC(0-336h) [3, 4] | increase in AUC(0-inf) [3, 4] | increase in AUC(0-inf) [3, 5] [fold] | increase of AUC(0-336h) [3, 5] [fold] |
| --- | --- | --- | --- | --- | --- | --- | --- | --- | --- |
| B1 | not mouse ENTPD2 cross-reactive | No binding | No binding | potently inhibit | detected in one (10 mg/kg) of nine animals | approximately 9.5 fold | approximately 9.5 fold | 5.9 | 5.3 |
| B2 | – | No binding | No binding | – | – | – | – | – | – |
